Results on 40 compounds are retold here after PMC12040169 (PLOS Biology, 2025).

Some of the results follow.

The test has as its system T1, C. trachomatis L2/434/Bu expressing GFP (CTL2-GFP).
T1 construct: L2/434/Bu GFP intracellular growth in HeLa cells
Also on record: species or system HeLa; C. trachomatis total inclusion area by high-content imaging, normalised to DMSO. Particulars: total inclusion area; 28.5 h, 10 µM; inhibitor. The procedure, abridged:
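High-content imaging followed the bulk GFP/resorufin measurement: fixed, Hoechst-stained cells were scored for GFP inclusions and host nuclei per well. Total inclusion area and count served as growth proxies, nuclei number as the viability proxy. MIC calculation matched the bulk assay.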
On to `O=C(CN1CCSCC1)NNC(=S)Nc1ccccc1` [CBK262445], for which the “% of control remaining” value is 105.944.
Regarding `O=C(NCc1ccc(F)cc1)c1ncoc1-c1cccs1` [CBK283976], the “% of control remaining” value turned out to be 96.228.
In the case of `Cc1cc(NC(=O)C(C)Oc2ccccc2)nc2c1c(=O)oc1ccccc12` (stereo not shown) [CBK291153], the “% of control remaining” value turned out to be 68.8524.
The result for `CCNc1cc(-c2cccc(N(C)C)c2)ncn1` [CBK090878] reads 82.7983; that for `CC(C)(C)C1CCc2c(sc(NC(=O)CCC(=O)O)c2C(=O)Nc2ccccc2Cl)C1` (stereo not shown) [CBK264146], 105.387.
As for `c1ccc(N2CCN(c3cccc(-c4ccco4)n3)CC2)nc1` [CBK037662], the “% of control remaining” value stood at 91.7154.
Turning to `COc1ccc(/C=N/Nc2ccc([N+](=O)[O-])cc2)c(C(=O)O)c1OC` [CBK261984], the “% of control remaining” value stood at 100.966.
As for `O=C(O)COc1ccc(NC(=O)C(c2ccccc2)c2ccccc2)cc1` [CBK264250], the “% of control remaining” value is 110.784.
Next, `Cc1ccc(C(=O)N2C3CCC2CC(O)(c2cccnc2F)C3)o1` (stereo not shown) [CBK284423]: 51.3239; `O=C(NC(Cc1ccsc1)c1nccs1)C1CCOCC1` (stereo not shown) [CBK282824]: 100.833; `CS(=O)(=O)N1CC=CC1C(=O)NCCCc1ccc(F)cc1` (stereo not shown) [CBK282631]: 121.084.
The result for `Cc1ccccc1COc1cccc2c1CCCC2` [CBK002562] reads 32.8117.
The result for `CC(C)(C)C(=O)N1CCC(c2[nH]ncc2-c2ccncc2)CC1` [CBK284211] reads 77.9918; that for `NC(=O)c1cnn(-c2cc(Oc3ccccc3)ncn2)c1N` [CBK098664], 88.3023; that for `c1ccc2c(-c3cn4ccnc4c(NC4CCOCC4)n3)cccc2c1` [CBK038047], 136.458.
As to `Cc1ccc(-c2nn(-c3cc(N4CCN(CCO)CC4)ccc3[N+](=O)[O-])c(=O)c3ccccc23)cc1C` [CBK263713], the “% of control remaining” value is 84.529.
Take `CC1OC(n2ccc(=S)[nH]c2=O)C(O)C1O` (stereo not shown) [CBK012231]: the “% of control remaining” value amounted to 64.4354.
Turning to `Cc1nonc1NC(=O)Nc1ccncc1` [CBK260982], the “% of control remaining” value was 85.7634.
Consider `CC(NC(=O)c1ncoc1-c1ccc(F)cc1)c1ccccn1` (stereo not shown) [CBK283846], for which the “% of control remaining” value is on record as 79.6611.
For the compound `CC(C)(C)SCCNc1nc(Cl)nc(N2CCSCC2)n1` [CBK018768], the “% of control remaining” value turned out to be 80.5013.
Take `Cc1ccc2ccccc2c1Cn1cc(-c2ccc([N+](=O)[O-])cc2)nc1SCC(=O)NC(C)(C)C` [CBK264493]: the “% of control remaining” value was 87.9099.
For the compound `COc1ccc(S(=O)(=O)NCCc2ccc(S(N)(=O)=O)cc2)cc1[N+](=O)[O-]` [CBK267598], the “% of control remaining” value came to 111.453.
For the compound `Cc1nnnn1-c1cc(NC(=O)NCCc2ccnn2C)ccc1F` [CBK306428], the “% of control remaining” value was determined as 132.853.
Next, `COC(=O)c1ccsc1NS(=O)(=O)c1ccc(C)c([N+](=O)[O-])c1` [CBK039061]: 132.067.
Turning to `COC(=O)c1ccccc1NC(=O)CSc1nc(C)cc(C(F)(F)F)n1` [CBK268682], the “% of control remaining” value is listed as 95.648.
Turning to `O=C(Nc1ccc(Cl)cc1)N1CCN(CCCCc2ccc(F)cc2)CC1` [CBK017951C], the “% of control remaining” value is reported as 25.5825.
Consider `C[C@]12CN(Cc3ccc(F)cc3)C[C@H]1NC(=O)c1ccccc1C2=O` [CBK284728], for which the “% of control remaining” value is reported as 98.7438.
On to `CC1CCc2nc(NC(=O)CC3CCN(C(=O)Cc4ccccc4)CC3)sc2C1` (stereo not shown) [CBK286509], for which the “% of control remaining” value is given as 102.006.
In the case of `COC(=O)c1csc2c1NC1(CCC1)[C@@H]1C[C@@H](O)[C@@H](O)[C@H]21` [CBK303255], the “% of control remaining” value is on record as 114.544.
Consider `Nc1ncn(CC(O)CO)c2nc(N3CCOCC3)nc1-2` (stereo not shown) [CBK009231], for which the “% of control remaining” value is given as 102.621.
As to `c1ccc2sc(CCSCCc3nc4ccccc4s3)nc2c1` [CBK261036], the “% of control remaining” value amounted to 95.0937.
Consider `CNC(=O)CN1C(=O)CC2(C1=O)C(=O)N(CCOC)c1ccc(C)cc12` (stereo not shown) [CBK075401], for which the “% of control remaining” value is 102.356.
The result for `CC(=O)N1CCc2c([nH]c3ccccc23)C1CCN(C)Cc1ccc(F)cc1` (stereo not shown) [CBK066969] reads 96.1056.
As to `O=c1[nH]c2ncc(-c3cncc4ccccc34)nc2n1Cc1ccccc1` [CBK065113], the “% of control remaining” value is given as 80.2082.
Consider `O=C(OCCC1SC(NC2CC3C=CC2C3)=NC1=O)c1c(F)cccc1Cl` (stereo not shown) [CBK200061T], for which the “% of control remaining” value was determined as 0.3723.
For the compound `CCn1c(SCC(=O)N2CCCC2)nc2cc(C)[nH]c2c1=O` [CBK288027], the “% of control remaining” value amounted to 94.3595.
For the compound `O=C(CC1CCN(C(=O)Cc2ccccc2)CC1)NC1(c2ccccc2)CCCC1` [CBK285965], the “% of control remaining” value came to 95.173.
As for `O=C(NCCc1cccs1)Nc1ccccc1OC(F)(F)F` [CBK044873], the “% of control remaining” value stood at 77.5749.
For `Cc1nn(CCC(=O)NC2CCOc3ccccc32)c(C)c1Cl` (stereo not shown) [CBK281684], the “% of control remaining” value was 113.934.
Turning to `Cc1nc(-c2ccccc2)sc1C(=O)C1=C(O)C(=O)N(CCN(C)C)C1c1ccccc1` (stereo not shown) [CBK266415], the “% of control remaining” value turned out to be 135.062.
